Results as given in patent EP3442964B1, “NOVEL N-[(PYRIMIDINYLAMINO)PROPANYL]-AND N [(PYRAZINYLAMINO)PROPANYL]ARYLCARBOXAMIDES” (Boehringer Ingelheim International GmbH, priority 2016, dated 2017).

Assays:
human Orexin 1 receptor [1] = target: T1, human Orexin 1 receptor (Homo sapiens, UniProt O43613); assay: cell-based
T1 sequence (O43613 1-425): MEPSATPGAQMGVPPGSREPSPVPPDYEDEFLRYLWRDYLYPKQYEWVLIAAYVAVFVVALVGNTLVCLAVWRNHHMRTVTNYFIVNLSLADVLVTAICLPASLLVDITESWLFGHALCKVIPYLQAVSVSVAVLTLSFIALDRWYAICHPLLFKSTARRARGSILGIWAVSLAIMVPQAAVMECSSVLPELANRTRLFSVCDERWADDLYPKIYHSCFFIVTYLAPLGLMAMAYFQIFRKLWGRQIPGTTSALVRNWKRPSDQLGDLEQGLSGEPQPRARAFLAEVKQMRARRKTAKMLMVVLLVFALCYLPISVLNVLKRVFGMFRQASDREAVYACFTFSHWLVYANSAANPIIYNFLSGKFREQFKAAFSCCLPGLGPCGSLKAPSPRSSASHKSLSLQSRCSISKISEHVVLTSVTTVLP

human Orexin 1 receptor [2] = target: T1, human Orexin 1 receptor; settings: for fold higher potency: versus Example 84 in WO2016/034882
[3] = Assay A OX1R Kb [nM] (Orexin A concentration), 50 nM Orexin A
[4] = Assay A OX1R Kb [nM] (Orexin A concentration), 0.5 nM Orexin A

**Q.** With `CCN(C(=O)c1ccc(F)cc1-n1nccn1)[C@@H](C)CNc1ncc(C(F)(F)F)cn1` [Example 2] as the compound, how does the Kb (human Orexin 1 receptor [1]; [3]) read?
**A.** 0.188 nM

**Q.** And the “OX2R Kb/OX1R Kb” value (human Orexin 1 receptor [2])?
**A.** 343

**Q.** With `CCN(C(=O)c1ccc(F)c(F)c1-n1nccn1)[C@@H](C)CNc1ncc(C(F)(F)F)cn1` [Example 4] as the compound, how does the Kb (human Orexin 1 receptor [1]; [3]) read?
**A.** 0.096 nM

**Q.** What about the “OX2R Kb/OX1R Kb” value (human Orexin 1 receptor [2]) of the same compound?
**A.** 489

**Q.** What does the source list for `CCN(C(=O)c1cc(F)ccc1-n1nccn1)[C@@H](C)CNc1ncc(C(F)(F)F)cn1` [Example 5]?
**A.** Kb (human Orexin 1 receptor [1]; [3]): 0.083 nM; OX2R Kb/OX1R Kb (human Orexin 1 receptor [2]): 425

**Q.** With `Cc1nc(C(=O)N(C)CCNc2ncc(Br)cn2)c(-c2ccc(F)cc2)s1` [Example 6 in WO03/051872, reference compound] as the compound, how does the Kb (human Orexin 1 receptor [1]; Assay A: OX1R Kb, 0.5 nM Orexin A concentration) read?
**A.** 30 nM

**Q.** And the “OX2R Kb/OX1R Kb” value (human Orexin 1 receptor [2])?
**A.** OX2RKb/OX1R Kb = 3.4

**Q.** What does the source list for `CCN(C(=O)c1c(F)cccc1-n1nccn1)[C@@H](C)CNc1ncc(C(F)(F)F)cn1` [Example 7]?
**A.** Kb (human Orexin 1 receptor [1]; [3]): 0.141 nM; OX2R Kb/OX1R Kb (human Orexin 1 receptor [2]): 237; fold more potent at OX1R (human Orexin 1 receptor [2]; versus Example 91 in WO2016/034882): 25 fold

**Q.** What does the source list for `CCN(C(=O)c1cc(C#N)ccc1-n1nccn1)[C@@H](C)CNc1ncc(C(F)(F)F)cn1` [Example 8]?
**A.** Kb (human Orexin 1 receptor [1]; [3]): 0.292 nM; OX2R Kb/OX1R Kb (human Orexin 1 receptor [2]): 114

**Q.** With `CCN(C(=O)c1cc(F)cnc1-n1nccn1)[C@@H](C)CNc1ncc(C(F)(F)F)cn1` [Example 10] as the compound, how does the Kb (human Orexin 1 receptor [1]; [3]) read?
**A.** 1.12 nM

**Q.** And the “OX2R Kb/OX1R Kb” value (human Orexin 1 receptor [2])?
**A.** 949

**Q.** What does the source list for `CCN(C(=O)c1cccc(F)c1-c1ncccn1)[C@@H](C)CNc1ncc(C(F)(F)F)cn1` [Example 11]?
**A.** Kb (human Orexin 1 receptor [1]; [3]): 0.014 nM; OX2R Kb/OX1R Kb (human Orexin 1 receptor [2]): 1379; fold higher potency (human Orexin 1 receptor [2]): at least 20 fold

**Q.** Which Kb (human Orexin 1 receptor [1]; [3]) does the source give for `CCN(C(=O)c1nc(C)ccc1-n1cccn1)[C@@H](C)CNc1ncc(C(F)(F)F)cn1` [Example 12] here?
**A.** 0.614 nM

**Q.** What about the “OX2R Kb/OX1R Kb” value (human Orexin 1 receptor [2]) of the same compound?
**A.** 210

**Q.** What about the “fold higher potency at OX1R” value (human Orexin 1 receptor [2]; versus Example 90 in WO2016/034882) of the same compound?
**A.** at least 3 fold

**Q.** How did the Kb (human Orexin 1 receptor [1]; [3]) turn out when `CCN(C(=O)c1c(F)cccc1-c1ncccn1)[C@@H](C)CNc1ncc(C(F)(F)F)cn1` [Example 13] was run?
**A.** 0.0925 nM

**Q.** And the “OX2R Kb/OX1R Kb” value (human Orexin 1 receptor [2])?
**A.** 670

**Q.** And the fold higher potency (human Orexin 1 receptor [2])?
**A.** at least 20 fold

**Q.** Which Kb (human Orexin 1 receptor [1]; [3]) does the source give for `CCN(C(=O)c1ccccc1-c1noc(C)n1)[C@@H](C)CNc1ncc(C(F)(F)F)cn1` [Example 14] here?
**A.** 0.138 nM

**Q.** What about the “OX2R Kb/OX1R Kb” value (human Orexin 1 receptor [2]) of the same compound?
**A.** 319

**Q.** `CCN(C(=O)c1cc(F)ccc1-c1ncccn1)[C@@H](C)CNc1ncc(C(F)(F)F)cn1` [Example 15] was tested. Which Kb (human Orexin 1 receptor [1]; [3]) did it give?
**A.** 0.0397 nM

**Q.** And the “OX2R Kb/OX1R Kb” value (human Orexin 1 receptor [2])?
**A.** 577

**Q.** And the fold higher potency (human Orexin 1 receptor [2])?
**A.** at least 20 fold

**Q.** For `CCN(C(=O)c1ccc(F)cc1-c1ncccn1)[C@@H](C)CNc1ncc(C(F)(F)F)cn1` [Example 16], which Kb (human Orexin 1 receptor [1]; [3]) is on record?
**A.** 0.0947 nM

**Q.** And the “OX2R Kb/OX1R Kb” value (human Orexin 1 receptor [2])?
**A.** 811

**Q.** And the fold higher potency (human Orexin 1 receptor [2])?
**A.** at least 20 fold

**Q.** With `CCN(C(=O)c1ncccc1-c1ccccc1)[C@@H](C)CNc1ncc(C(F)(F)F)cn1` [Example 19] as the compound, how does the Kb (human Orexin 1 receptor [1]; [3]) read?
**A.** 0.12 nM

**Q.** And the “OX2R Kb/OX1R Kb” value (human Orexin 1 receptor [2])?
**A.** 104

**Q.** With `CCN(C(=O)c1cncnc1-c1ccccc1)[C@@H](C)CNc1ncc(C(F)(F)F)cn1` [Example 20] as the compound, how does the Kb (human Orexin 1 receptor [1]; [3]) read?
**A.** 0.566 nM

**Q.** And the “OX2R Kb/OX1R Kb” value (human Orexin 1 receptor [2])?
**A.** 120

**Q.** How did the Kb (human Orexin 1 receptor [1]; [3]) turn out when `CCN(C(=O)c1nccnc1-c1ccccc1)[C@@H](C)CNc1ncc(C(F)(F)F)cn1` [Example 21] was run?
**A.** 0.363 nM

**Q.** What about the “OX2R Kb/OX1R Kb” value (human Orexin 1 receptor [2]) of the same compound?
**A.** 154

**Q.** How did the Kb (human Orexin 1 receptor [1]; [3]) turn out when `CCN(C(=O)c1ccccc1-n1nccn1)[C@@H](C)CNc1cnc(C(F)(F)F)cn1` [Example 22] was run?
**A.** 0.0202 nM

**Q.** What about the “OX2R Kb/OX1R Kb” value (human Orexin 1 receptor [2]) of the same compound?
**A.** 366

**Q.** Which Kb (human Orexin 1 receptor [1]; [3]) does the source give for `CCN(C(=O)c1ccc(F)cc1-c1nnc(C)o1)[C@@H](C)CNc1cnc(C(F)(F)F)cn1` [Example 23] here?
**A.** 0.558 nM

**Q.** What about the “OX2R Kb/OX1R Kb” value (human Orexin 1 receptor [2]) of the same compound?
**A.** 398

**Q.** What does the source list for `CCN(C(=O)c1cccc(F)c1-n1nccn1)[C@@H](C)CNc1cnc(C(F)(F)F)cn1` [Example 24]?
**A.** Kb (human Orexin 1 receptor [1]; [3]): 0.0141 nM; OX2R Kb/OX1R Kb (human Orexin 1 receptor [2]): 709

**Q.** What does the source list for `CC[C@@H](CNc1cnc(C(F)(F)F)cn1)N(C)C(=O)c1cc(Cl)ccc1-n1nccn1` [Example 40 in WO2016/034882, reference compound]?
**A.** Kb (human Orexin 1 receptor [1]; [3]): 0.18 nM; OX2R Kb/OX1R Kb (human Orexin 1 receptor [2]): 211

**Q.** What does the source list for `CC[C@@H](CNc1ncc(C(F)(F)F)cn1)N(C)C(=O)c1nc(C)ccc1-n1nccn1` [Example 46 in WO2016/034882]?
**A.** Kb (human Orexin 1 receptor [1]; [3]): 1.56 nM; OX2R Kb/OX1R Kb (human Orexin 1 receptor [2]): 240

**Q.** `CC[C@@H](CNc1ncc(C(F)(F)F)cn1)N(C)C(=O)c1nc(C)ccc1-c1ncccn1` [Example 84 in WO2016/034882, reference compound] was tested. Which Kb (human Orexin 1 receptor [1]; [4]) did it give?
**A.** 2.2 nM

**Q.** And the “OX2R Kb/OX1R Kb” value (human Orexin 1 receptor [2])?
**A.** 104

**Q.** What does the source list for `CC[C@@H](CNc1ncc(C(F)(F)F)cn1)N(C)C(=O)c1nc(C)ccc1-n1cccn1` [Example 90 in WO2016/034882, reference compound]?
**A.** Kb (human Orexin 1 receptor [1]; [4]): 1.3 nM; Kb (human Orexin 1 receptor [1]; [3]): 2.3 nM

**Q.** What does the source list for `CC[C@@H](CNc1ncc(C(F)(F)F)cn1)N(C)C(=O)c1c(F)cccc1-n1nccn1` [Example 91 in WO2016/034882, reference compound]?
**A.** Kb (human Orexin 1 receptor [1]; [4]): 3.63 nM; OX2R Kb/OX1R Kb (human Orexin 1 receptor [2]): 86
